Measurements as given in paper PMC4336329 (PLoS ONE, 2015).
In all, about 310,000 compounds went through this assay and about 2,200 (0.71%) showed an effect of 50% or more. The effect is printed as a negative number. The list shows a part of the results.

molecular target: human ether-à-go-go-related gene (hERG) potassium channel (human, UniProt Q12809); assay: primary screen, population patch clamp on CHO cells stably expressing hERG
Sequence (Q12809 whole entry, looked up): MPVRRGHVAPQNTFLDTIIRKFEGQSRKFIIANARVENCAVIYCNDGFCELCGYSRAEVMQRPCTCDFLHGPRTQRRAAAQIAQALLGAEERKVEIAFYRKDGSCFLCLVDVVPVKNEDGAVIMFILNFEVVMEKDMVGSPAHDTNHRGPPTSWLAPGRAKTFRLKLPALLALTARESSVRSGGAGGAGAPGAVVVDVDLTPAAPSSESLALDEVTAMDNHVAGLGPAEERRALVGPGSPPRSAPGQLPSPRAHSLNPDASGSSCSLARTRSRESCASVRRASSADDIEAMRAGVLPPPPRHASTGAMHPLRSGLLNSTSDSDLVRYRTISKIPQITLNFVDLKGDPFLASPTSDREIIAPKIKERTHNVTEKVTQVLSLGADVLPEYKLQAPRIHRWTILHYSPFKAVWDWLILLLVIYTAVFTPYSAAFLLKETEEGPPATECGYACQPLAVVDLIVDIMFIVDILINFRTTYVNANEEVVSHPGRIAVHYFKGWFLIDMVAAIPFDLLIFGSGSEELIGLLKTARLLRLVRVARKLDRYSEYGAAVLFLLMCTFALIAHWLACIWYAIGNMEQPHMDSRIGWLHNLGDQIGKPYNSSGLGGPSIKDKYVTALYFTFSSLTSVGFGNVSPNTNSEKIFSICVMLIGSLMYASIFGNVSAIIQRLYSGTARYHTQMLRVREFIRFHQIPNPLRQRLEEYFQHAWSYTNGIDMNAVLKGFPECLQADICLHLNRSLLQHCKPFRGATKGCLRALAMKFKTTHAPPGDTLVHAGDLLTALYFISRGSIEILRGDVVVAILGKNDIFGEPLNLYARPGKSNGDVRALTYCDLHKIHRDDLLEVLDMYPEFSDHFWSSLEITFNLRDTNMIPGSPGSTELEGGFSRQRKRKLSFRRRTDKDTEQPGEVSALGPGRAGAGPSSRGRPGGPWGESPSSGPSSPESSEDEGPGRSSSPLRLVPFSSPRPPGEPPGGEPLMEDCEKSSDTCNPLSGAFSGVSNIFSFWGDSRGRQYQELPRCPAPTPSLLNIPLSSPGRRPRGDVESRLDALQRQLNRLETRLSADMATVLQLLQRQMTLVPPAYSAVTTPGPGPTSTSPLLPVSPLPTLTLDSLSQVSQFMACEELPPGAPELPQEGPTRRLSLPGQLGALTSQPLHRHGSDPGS

Compared with `Cn1nccc1C(=O)Nc1ccccc1C(=O)O`, `O=C(O)c1ccccc1SCc1cn2ccccc2n1` is lower in “hERG current change (%, negative = inhibition) at 1uM” value: 9.76% for the first, 8.62% for the second.

Going from `CC(=O)c1ccc(NC(=O)COC(=O)c2nc(Cl)ccc2Cl)cc1` to `CCn1c(SCC(=O)Nc2ccc(NC(C)=O)cc2)nc2c([nH]c3ccccc32)c1=O`, the “hERG current change (%, negative = inhibition) at 1uM” value rises from 14.4% to 16.8%.

First: Cc1ccc(N(CC(=O)NC2CCCC2)C(=O)CCCC(=O)Nc2ccccn2)cc1C
Second: Cc1ccc(C(=O)N(CC(=O)NC2CCCC2)c2ccc3c(c2)OCCO3)s1
The “hERG current change (%, negative = inhibition) at 1uM” value of the first is higher: 13.5% for the first, 3.03% for the second.

Going from `COc1ccc(OCC(=O)OCC(=O)NCc2ccco2)cc1` to `O=C(NCc1ccco1)C1OCCc2ccccc21` (centres unmarked), the “hERG current change (%, negative = inhibition) at 1uM” value rises from -2.31% to 10.4%.

Compared with `Cc1ccc(NC(=S)N2CCOCC2)cc1`, `Cc1ccc(NC(=O)C2=COCCO2)cc1S(=O)(=O)N1CCOCC1` is higher in “hERG current change (%, negative = inhibition) at 1uM” value: -6.23% for the first, 13% for the second.

First: Cc1cc(SCC(=O)N/N=C/c2ccc(O)cc2O)c(C)cc1Br
Second: COc1ccc(C)cc1NC(=O)CSCc1ccccc1C
The “hERG current change (%, negative = inhibition) at 1uM” value of the first is lower: 8.67% for the first, 9.21% for the second.

Going from `COc1ccccc1OCC#CCN1CCOCC1.O=C(O)C(=O)O` to `CCCCN(C)C(=O)C1CCN(Cc2cccc(OCc3ccccc3)c2)CC1.O=C(O)C(=O)O`, the “hERG current change (%, negative = inhibition) at 1uM” value falls from 11.5% to -35.6%.

First: COc1ccc(C2CC(=O)N3C(=C2C#N)SCC3(O)c2ccccc2)cc1 (centres unmarked)
Second: COc1ccc(-c2nc(N3CCCCCC3)sc2C(=O)c2ccccc2)cc1
The “hERG current change (%, negative = inhibition) at 1uM” value of the first is lower: -3.14% for the first, 5.07% for the second.

First: CCOC(=O)C1=C(c2ccccc2)NC(=O)NC1c1ccc(O)c(Cl)c1 (centres unmarked)
Second: CN(C(=O)COc1cc(=O)n(C)c2ccccc12)c1cccc(Cl)c1
The “hERG current change (%, negative = inhibition) at 1uM” value of the first is higher: 15.3% for the first, -7.39% for the second.

Compared with `Cc1csc2nc(CNC(=O)c3ccco3)cn12`, `COC(=O)c1sccc1NC(=O)c1ccoc1C` is lower in “hERG current change (%, negative = inhibition) at 1uM” value: 19.7% for the first, 12.6% for the second.

Going from `CN(C)c1ccc(CNC(=O)CN(C)S(=O)(=O)c2ccc3c(c2)c(=O)n(C)c(=O)n3C)cc1` to `CCN(CCCNC(=O)CN(C)S(=O)(=O)c1cccc2nsnc12)c1ccccc1`, the “hERG current change (%, negative = inhibition) at 1uM” value rises from -3.06% to 7.83%.

Compared with `Cc1ccc(S(=O)(=O)NCCc2ccncc2)cc1`, `Cc1ccc(C2=N/C(=C\c3ccc(F)cc3)C(=O)N2)cc1` is lower in “hERG current change (%, negative = inhibition) at 1uM” value: 7.04% for the first, 0.14% for the second.

Going from `CN1CCN(C(=S)NC(=O)c2cccc([N+](=O)[O-])c2)CC1` to `CC1CCN(S(=O)(=O)c2ccc3c(c2)CCN3C(=O)C2CCC2)CC1`, the “hERG current change (%, negative = inhibition) at 1uM” value falls from 22.3% to 13%.

Compared with `N#Cc1ccccc1NC(=O)c1ccccc1OCC(=O)Nc1ccc2c(c1)oc1ccccc12`, `O=C(c1ccncc1)N(Cc1ccccc1)Cc1nc2ccccc2c(=O)[nH]1` is lower in “hERG current change (%, negative = inhibition) at 1uM” value: 18.5% for the first, 17.6% for the second.

First: COc1ccc2cc(C(=O)Nc3ccc(F)cc3)sc(=O)c2c1OC
Second: CCc1ccc(NC(=O)Nc2cccc(OC)c2)cc1
The “hERG current change (%, negative = inhibition) at 1uM” value of the first is higher: 11.4% for the first, 7.59% for the second.

First: CCC(=O)Nc1sc(C(=O)OC)c(C)c1C(=O)OC
Second: CCOC(=O)C(CC)(CC)C(=O)/C=C/c1ccc(Br)cc1
The “hERG current change (%, negative = inhibition) at 1uM” value of the first is higher: 14.3% for the first, 7.42% for the second.

First: Cc1cc(C(=O)NNC(=S)Nc2cccc(C(F)(F)F)c2)nn1C
Second: C#CC(C)(CC)NC(=O)Cn1nnc(-c2cccc(C(F)(F)F)c2)n1 (centres unmarked)
The “hERG current change (%, negative = inhibition) at 1uM” value of the first is higher: 18.6% for the first, -1.45% for the second.

First: O=C(C[N+]1(CC#Cc2ccccc2)CCOCC1)c1ccccc1.[Br-]
Second: CC1CCCC(C)N1C(=O)CSc1nnc(COc2ccccc2)n1-c1ccccc1 (centres unmarked)
The “hERG current change (%, negative = inhibition) at 1uM” value of the first is higher: 19.2% for the first, 9.62% for the second.

First: NC(=O)C1CCN(C(=O)CCc2nc3ccccc3c(=O)[nH]2)CC1
Second: CCOC(=O)N1CCN(C(=O)C2CCN(S(=O)(=O)c3cc(C)ccc3OC)CC2)CC1
The “hERG current change (%, negative = inhibition) at 1uM” value of the first is higher: 9.31% for the first, 7.79% for the second.

First: CCCCS(=O)(=O)N1CCCC(C(=O)NCCc2ccccc2)C1 (centres unmarked)
Second: CCC(C(=O)OCCOCCN(CC)CC)c1ccccc1 (centres unmarked)
The “hERG current change (%, negative = inhibition) at 1uM” value of the first is higher: 14.2% for the first, 10.3% for the second.

First: O=C(NCc1cccnc1)C(=O)N/N=C/c1ccc([N+](=O)[O-])cc1
Second: CC(Oc1ccccc1F)c1nnc(SCC(=O)Nc2ccc(N3CCOCC3)cc2)o1 (centres unmarked)
The “hERG current change (%, negative = inhibition) at 1uM” value of the first is higher: 17% for the first, 7.98% for the second.

Compared with `CCCc1cc2c(=O)c(-c3ccccn3)coc2cc1OC`, `COc1cccc(NC(=S)Nc2ccc(Br)cc2Cl)c1` is higher in “hERG current change (%, negative = inhibition) at 1uM” value: 10.4% for the first, 25.6% for the second.
